Results as given in PubChem BioAssay AID588453 (National Center for Advancing Translational Sciences (NCATS), 2011).
Several values for one entry are separate records, joined by “and”; a condition that tells them apart may be missing. Equal values may be shown once. In all, about 390,000 compounds went through this assay and about 4,000 (1%) were called active. The inconclusive results got no clear call from the source; some entries with a clear call stand among them for comparison. The call rests on the fitted dose curve; in most records, active means well fitted inhibition curve with a large enough effect; inconclusive means small, poorly fitted or top-dose-only effect; inactive means no such curve, though single readings can be large or run the other way. Potencies of inconclusive entries are doubtful fits and often do not repeat. Where a structure was tested more than once in an assay, its records may differ in their call.

target: Thioredoxin reductase 1, cytoplasmic (Rattus norvegicus) (UniProt O89049); assay: qHTS Assay for Inhibitors of Mammalian Selenoprotein Thioredoxin Reductase 1 (TrxR1): qHTS; settings: recombinant rTrxR1, NADPH fluorescence consumption, selenite substrate; series mostly up to 114 µM; activity change, negative = inhibition: at the top concentration; further: nearly all actives have a fitted effect of over 65% in size
UniProt O89049, sequence (O89049 whole entry, looked up): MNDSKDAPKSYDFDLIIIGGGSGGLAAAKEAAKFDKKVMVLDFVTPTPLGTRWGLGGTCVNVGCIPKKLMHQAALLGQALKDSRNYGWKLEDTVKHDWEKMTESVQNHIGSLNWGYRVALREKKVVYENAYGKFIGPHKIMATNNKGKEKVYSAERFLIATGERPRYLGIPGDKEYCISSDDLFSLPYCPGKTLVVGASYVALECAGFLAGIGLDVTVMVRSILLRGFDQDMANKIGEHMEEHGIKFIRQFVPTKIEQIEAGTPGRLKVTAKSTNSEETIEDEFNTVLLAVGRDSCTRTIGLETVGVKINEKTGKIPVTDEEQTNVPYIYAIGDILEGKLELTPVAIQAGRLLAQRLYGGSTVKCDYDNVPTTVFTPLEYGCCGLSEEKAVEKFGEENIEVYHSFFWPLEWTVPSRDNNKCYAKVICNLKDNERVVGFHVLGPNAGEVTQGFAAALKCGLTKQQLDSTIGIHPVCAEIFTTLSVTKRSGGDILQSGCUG
Outline: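 Rat TrxR1 (90 nM in the dispensed reagent) was pre-reduced with 400 uM NADPH for 5 min at room temperature, then incubated with compound for 15 min. After 400 uM selenite was added, NADPH fluorescence (Ex 340/Em 450 nm) was followed for 8 min.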
On the % scale 0 is the no-effect control and ±100 the full control effect; potency means the concentration at half of the fitted maximal effect; tags describe the fitted curve by direction and shape.

SMILES	Potency	activity change, negative = inhibition
CCN1CCN(C(c2ccc(Cl)cc2)c2c(O)cc(C)n(CCOC)c2=O)CC1 (centres undefined)	inconclusive: 7.94 µM [inhibitor, full curve, poor fit]	
COc1ccc(C(C)=O)cc1COc1cccc2c1OC(C)(C)C2	active: 31.6 µM	
Cc1cc(N2CCC(C)CC2)nc2cccc(O)c12	inconclusive: 50.1 µM [inhibitor, partial curve]	
Cc1cc(C)cc(N(CC(=O)Nc2ccc(C(F)(F)F)cc2)S(=O)(=O)c2c(C)[nH]c(=O)[nH]c2=O)c1	inactive	
C/C(=C\C(=S)Nc1ccccc1)Nc1cccc2ccccc12	inconclusive: 5.62 µM [inhibitor, full curve]	
C/C(=N\NC(=O)c1cc(-c2ccco2)nc2ccccc12)c1cccnc1	inconclusive: 100 µM [inhibitor, single point]	
Cn1c(NCc2ccccc2F)nc2ccccc21		inactive: -7.59%
COCCn1c(SCC(=O)c2cccc(OC)c2)nnc1-c1ccco1	inconclusive: 17.8 µM [inhibitor, single point]	
COc1cc(/C=C2/C(=O)NN(c3ccc(F)cc3)C2=O)cc(Cl)c1O	inconclusive: 22.4 µM [inhibitor, full curve]	
Cc1ncc(CO)c(/C=N/NC(=S)Nc2ccc(F)cc2)c1O	inconclusive: 70.8 µM [inhibitor, single point]	
CC(OC(=O)c1ccc([N+](=O)[O-])o1)C(=O)Nc1nc(-c2ccc(F)c(F)c2)cs1 (centres undefined)	inconclusive: 70.8 µM [inhibitor, partial curve]	
COc1ccc(-c2cn(-c3ccc(C)cc3C)c(=O)[nH]2)cc1OC	inconclusive: 28.2 µM [inhibitor, partial curve]	
CSC1=C(C#N)C(c2ccccc2Cl)C2=C(N1)c1ccccc1C2=O (centres undefined)	active: 50.1 µM	
Cc1nn(C)cc1NC(=O)c1ccc(Br)o1	inconclusive: 89.1 µM [inhibitor, partial curve, poor fit]	
Cc1csc(NC(=O)/C=C/c2ccco2)n1	inconclusive: 70.8 µM [inhibitor, single point]	
Cn1c(NCc2ccccc2O)nc2ccccc21		inactive: -6.6%
Cc1cc(C)cc(OCCOCCn2c(-c3ccc(Cl)cc3)nc3ccccc3c2=O)c1	inconclusive: 89.1 µM [inhibitor, single point]	
COc1ccc(CNC(=O)C(C)n2nc(C)c3c(C)n(-c4ccc(C)cc4)nc3c2=O)cc1 (centres undefined)		inactive: 11.1%
CCN1C(=O)/C(=C/c2cc(C)n(C)c2C)SC1=Nc1ccc(OC)cc1	inconclusive: 70.8 µM [inhibitor, single point]	
O=C(CC1C(=O)NCCN1Cc1cccc(F)c1F)NC1CCCCCC1 (centres undefined)	inconclusive: 17.8 µM [inhibitor, partial curve, poor fit]	
COc1ccc(-c2csc3[nH]c(=S)n(-c4ccccc4)c(=O)c23)cc1OC	inconclusive: 3.55 µM [inhibitor, full curve, poor fit]	
N#C/C(=C\c1ccc(OCCN2CCOCC2)cc1)C(=O)Nc1ccc(S(N)(=O)=O)cc1	inconclusive: 79.4 µM [inhibitor, partial curve, poor fit]	

SMILES	Potency	activity change, negative = inhibition
Cc1nc2c(-c3ccc(F)cc3)c(C)[nH]n2c(=O)c1Cl		inactive: -2.62%
CCN1C(C(=O)c2ccccc2)=C(OC(=O)c2ccc(Cl)cc2)c2ccccc2S1(=O)=O	inconclusive: 25.1 µM [inhibitor, partial curve, poor fit]	
CCOc1cccc(NC(=O)CSc2ncc(-c3ccc(Cl)cc3)[nH]2)c1		inactive: 3.45%
Cc1csc(NC(=O)c2cc(-c3ccco3)nc3ccccc23)n1	inconclusive: 50.1 µM [inhibitor, partial curve]	
Cn1c(-c2ccc(Br)o2)nc2ccccc21	inconclusive: 35.5 µM [inhibitor, partial curve] and inconclusive: 70.8 µM [inhibitor, single point]	
COc1ccc(C(=O)Cn2cnc3ccccc3c2=O)c(OC)c1	inconclusive: 89.1 µM [inhibitor, single point]	
Cc1cc(-c2nc3ncccc3o2)ccc1NC(=O)c1ccc([N+](=O)[O-])o1		inactive: -12.9%
Cc1ccc(C(=O)N/N=C\c2ccc([N+](=O)[O-])o2)cn1	inconclusive: 17.8 µM [inhibitor, full curve]	
O=C1OC(c2ccccc2)=C/C1=C\N1CCOCC1	inconclusive: 15.8 µM [inhibitor, full curve]	
Cc1ccc(-c2csc(NC(=O)CSC3=NCCS3)n2)cc1		inactive: -11.2%
NC(=S)N/N=C1/CCSc2ccc3ccccc3c21		inactive: 22.8% [at 57.1 µM]
CC(=O)/C=C1\C(=O)N(C)c2ccccc21	active: 29.9 µM	
CCN(CC)c1ccc(NC(=O)CCS(=O)(=O)c2cccc3nsnc23)c(C)c1	active: 79.4 µM	
COCCn1c(C)cc(O)c(C(c2ccccc2)N2CCN(c3ccc(F)cc3)CC2)c1=O (centres undefined)	inconclusive: 11.2 µM [inhibitor, partial curve]	
OC(CNc1ncnc2sccc12)c1ccccc1 (centres undefined)		inactive: 11.4%
NCCCCCCCCCCN	inconclusive: 0.474 µM [inhibitor, full curve, poor fit]	
COC(=O)c1ccc(NC(=O)c2cc[n+](Cc3ccccc3)cc2)cc1	inconclusive: 89.1 µM [inhibitor, single point]	
CN(c1ncnc(N)c1[N+](=O)[O-])C1CCCCC1	inconclusive: 28.2 µM [inhibitor, full curve, poor fit]	
Cn1cc(S(=O)(=O)CC(=O)Nc2ccc3c(c2)OCCO3)c2ccccc21	inconclusive: 39.8 µM [inhibitor, single point]	
C=C1CCN(CC(=O)OC)S(=O)(=O)c2ccccc21	inconclusive: 56.2 µM [inhibitor, single point]	
COc1ccc(-c2nc3oc4cc(OC)ccc4c(=O)c3c(=O)n2Cc2ccco2)cc1	inconclusive: 50.1 µM [inhibitor, partial curve]	
CC(=O)N1CCc2c(sc(NC(=O)c3ccc([N+](=O)[O-])o3)c2C#N)C1	inconclusive: 22.4 µM [inhibitor, full curve]	
